Drawing on PubChem BioAssay (NCI), this text covers growth for one compound.

The assay deals with HOP-92 NSCLC. The assay can be described thus: NCI-60 one-dose screen, 48 h (100 = growth as untreated, 0 = no growth, -100 = all killed). The settings on record: 0.25 µM.

More than one record can exist for a structure, and the calls need not agree.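 Assay: single dose, 48 h. Readout: percent growth (0 = no net growth; negative = cell death). Active: <10.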 Not every entry of the source has a single result; some have several. The list is limited to them. An entry can have further records. These are repeated runs of one drug, at its own concentration, as given; each value is one run. Brackets with × count equal records among those shown.

For `COc1cccc2c1C(=O)c1c(O)c3c(c(O)c1C2=O)C[C@@](O)(C(=O)CO)C[C@@H]3OC1CC(N)C(O)C(C)O1` (stereo not given in full), the growth entry is, setting by setting: (runs of 2006) “active: -3.49%, 9.41%”; (runs of 2007) “active: -8.8, -4.63, -11.7, -12.8, -0.101, -5.72, -7.15, 8.99, -1.19, -16.9, -14.7, 6.01, -12.5, -2.68, -10.7, -25.5, -11.4, 5.85, -17.3, 1.13, 5.64, -19.9% and inactive: 14.4, 17, 16.1, 15.4, 16.3, 20.5, 13.5, 17.2, 32.4, 20.6, 24.7, 15.9, 11.1, 29.9 (2×), 15.1, 30.4, 31.3, 38.1, 39, 21.1, 40.7%”; (runs of 2008) “inactive: 31.7, 60.4, 10.5, 25.2, 15.6, 35.8, 14.5, 32.3, 12.1, 37.2, 22.9, 16.4, 11.3, 19.2, 25.7, 17.8, 71.6, 11.4, 15.5, 37.5, 12.5, 29.4, 41, 28.3, 11.5, 36.9, 52.2, 18, 46.5, 23.1, 10.9% and active: -11.1, 9.68, 3.28, -8.59, 3.43, -4.33, -12.7, -0.687, 3.49, -2.74, 7.63, 0.426, 1.55, -14, -26.5, -10.5, -5.79, -19.6, -18%”; (runs of 2009) “active: -10.9, -8.14, 4.41, 8.41, -2.04, -4.58, -2.88, 1.43, -4.34, 6.8, -6.63, -9.77, 1.64, -11.1, -2.66, 7.51, 9.14, 5.68, 3.68, -4.38, 2.1, -6.57, -6.69, -7.01% and inactive: 27.2, 58, 63.6, 37.3, 40.4, 53.5, 45.3, 29.5, 43.6, 32.1, 15, 35.6, 41, 39.5, 35.9, 39.4, 11.8, 20.5 (2×), 31.9, 13.2, 21.2, 21.4, 19.3, 23.1, 29.8, 58.5, 32, 45.8, 35.7, 43.7, 46.5, 26.3, 55.4, 15.5, 26.1, 17%”; (runs of 2010) “inactive: 24.2, 31.9, 50.2, 25.2, 20.6 (2×), 57.7, 40.3, 28.6, 33.3, 15.5, 35, 56.6, 26.3, 17.3, 16.5, 30.2, 10.6, 23, 22.2, 33.2, 60.4, 45.7, 61.8, 26.1, 22.8, 31.1, 24.4, 17.1, 25.9, 39.1, 23.4, 29.7, 67.1, 17.7, 42.4, 49.1, 41.1, 18.4, 46, 21.7, 59.3% and active: 8.06, 3.33, -1.42, -6.39, -7.23, 9.34%”; (runs of 2011) “inactive: 43.6, 32.9, 28.9, 37.3, 39.3 (2×), 32.2, 26.5, 11.6, 58.7, 60.4, 42.7, 29.5, 59.7, 47.4 (2×), 41.2, 40.3, 53.3, 40.7, 53.8, 38.8, 35.8, 65.7, 65, 54.3, 45.2, 52.8, 52.7, 30.7, 68, 42.8, 44.7, 46, 13.6, 24.9, 17.6, 32.5, 17, 36.8, 45, 43.2, 34.9, 23.7, 12.5, 22.9, 13.1, 20.1, 12% and active: 1.02, -1.33, 8.75, 1.28, 4.38%”. For the same compound, the growth result by setting is: (runs of 2012) “inactive: 37.3, 47.9, 38.5 (2×), 15.6, 32.9, 14.2 (2×), 51.1 (2×), 21.2, 16.3, 41.1 (2×), 42.9, 14, 12.2, 61.3, 40.2, 29, 24.7, 19.7, 14.6, 19.1, 13.6, 42.2, 38.8, 32.4, 49.1 (3×), 37.2, 49.7, 30.9, 39.4, 52.2, 17.2, 13.4, 40.3, 57.8, 28.3, 25.5, 56.2, 40.6, 76.7, 58.6, 55.9, 21.9, 67.5, 80.1, 29.5, 64.7, 18.8, 45.7, 43.2% and active: 9.65, 8.07, 0.704, 1.76, -1.91, -1.56, -0.632, -3.25, -5.57, 8.47, 7.78, 9.29, 8.3, 9.98%”; (runs of 2013) “inactive: 20.3, 25.3, 44.4, 39.3, 32.7 (2×), 28.2, 17.8 (2×), 69, 53.6 (2×), 49.5, 26.2, 51, 28.9, 59.7, 25.4, 27.7, 58 (2×), 25.7, 46.5, 56.1, 11.1, 24.9, 21, 11.3, 50.5, 19.8, 10.3, 36.6, 48.2, 55.5, 31.6, 29, 23.5, 18.3, 55.9, 40.7, 20.6, 14.7, 20.8, 23.3, 22.7, 35.1, 19.7, 40.6, 28.6, 38.1% and active: 6.96, 7.27, 3.37, 3.83, 5.93, 0.716, -6.58, -6.92, 4.43, 7.88, -5.55, 9.98%”; (runs of 2014) “inactive: 12.1, 12.8, 31.6 (2×), 22, 14.5, 12.5, 11.8, 37.4, 35.4, 47.5, 38.8, 29.8, 26.1, 27.6, 33.3, 42.2, 48.7, 31.5, 14.7, 17.9, 22.1, 16.3, 16.8, 30.5, 16.2, 21 (2×), 26.2, 27.9, 20.6, 44.6, 24.2, 50.1, 41.1, 36.4, 23.2, 24, 10.3, 22.8, 40.2, 40.8, 20.2, 13.4, 39.1, 24.3, 33.7, 31.1, 33.6, 27.8, 51, 32.8, 53.4, 51.9 (2×), 47.6, 47.4, 56.3, 57.7, 52.3, 57.2, 54.4, 57, 63.6, 54.9% and active: 3.82, -3.02, -0.727, -5.12, -2.84, -11.8, 7.37, 0.556, 3.83, 2.71, 5.62, 5.27, -3.64, -4.14, -4.21, 0.352, 4.96, 6.65, 3.62%”; (runs of 2015) “inactive: 42.1, 13.8, 41.9 (2×), 37.2, 28 (2×), 40.7 (2×), 36.5, 28.4, 39.5, 51.7, 57.7, 35.8, 44.1, 26.7, 27.3 (2×), 44.4, 25.3, 44.9, 49, 34.5, 40.2, 33.6, 35.6, 25.5, 22.9, 13.3 (2×), 35.2 (2×), 10.1, 15.1, 17.5, 23.4 (2×), 29.5, 50.9, 61.9, 55.4, 50.3, 15.7, 53.3, 43.2, 40.5, 33.8, 39.4, 28.6, 31.9, 11, 25, 38.7, 23.7, 26.2, 20.8, 49.1, 49.9, 55.2, 49.8, 47.8 (2×), 31.3, 40.9, 48.8, 43, 54.3, 36.1, 42.4, 34.4% and active: 5.6, 9.29, -2.45, 9.46, 6.95, -3.79, -1.04, 6.62%”; (runs of 2016) “inactive: 12.8, 12.7, 24, 11.3, 32.1, 37.9 (2×), 66.6, 55.2, 41.2, 40, 30.3, 37.7, 33.2, 29, 29.4, 39.3, 16.4, 15.6, 22, 37.2, 40.2 (2×), 21.7 (2×), 36.4, 42.2, 31.1, 31.2, 22.7, 36.6, 32.5, 47, 47.9, 31, 46.9, 32.2, 31.9 (2×), 66.7, 19.9, 53.1, 42 (2×), 23.3, 37.5, 22.1, 47.1, 49.5, 27.8 (2×), 45.6, 59.4, 33.6, 37.3, 21.4, 40.3 (3×), 39, 40.4, 34.5, 26.5, 17, 32.4, 25.4, 53, 50.4, 33.9, 46.6, 51.8, 44.2 (2×), 58.3, 38.1, 31.7, 33.3, 29.9, 27.1, 12.2, 38, 28.3% and active: 1.6%, 2.17%”; (runs of 2017) “inactive: 41.8, 34.6, 24, 18.9, 19.9 (2×), 14.3, 44.1, 32.4, 31.2, 41.5, 37.3 (2×), 23.3, 34.2, 35.6 (2×), 41, 38.1 (2×), 33.3, 26.8, 28, 41.9 (2×), 36.6, 36.7 (2×), 38.4, 33.9, 16.5 (2×), 61.4, 41.3, 45.7, 42.4, 37.6, 38.5, 37.7, 38.8, 14.7, 33.1, 42.8, 22.6, 28.4, 27.9, 49.7, 30.8 (2×), 42.1, 27, 32.5, 35.9, 39, 35.2, 29.9, 19.3, 24.5 (2×), 34, 25.9 (2×), 50.1, 44.5, 30, 26, 10.9, 11.8, 15.2, 10.2, 38.7, 31.6, 38.6, 34.9, 20% and active: 1.83%”. For the same compound, the growth entry by setting is: (runs of 2018) “inactive: 26.6, 29, 17.7, 10.7, 25.1, 16.8, 14.3, 14, 20.5, 31.4, 47.2, 40.5, 28.6, 27.8 (2×), 21.2, 18.2, 11.8, 11.1, 39.6, 30.2, 14.6, 34.5, 25.8, 28.9, 25.5, 15.4, 15.8, 21.6, 10.1, 17.9, 33.9, 22.1, 13.4, 14.7, 17.8, 21.7, 39.5, 34.3, 15.2, 19.8% and active: 8.92, 0.642, -1.12, 8.31, 1.17, -0.0032, 2.3, 9.87, 1.79, 2.35, 1.62, 7.41, 5.63%”; (runs of 2019) “inactive: 31.9, 21.1, 33.1, 21.2 (2×), 11.1, 18, 14.2, 35.2, 24.4, 41.7 (2×), 20.2 (2×), 37.2, 31.4 (2×), 35.3, 23.4 (2×), 26.5, 18.7, 16.5, 22.3, 18.3, 17.6, 20.9, 34.6, 26.6, 25, 40.8, 30.2, 24.7, 26.8, 22.8, 28.4, 12.5, 10.4, 20.5, 22, 33.3, 25.4, 20.7, 21% and active: 1.96, 3.87, 4.37, 8.95, 0.642, 7.57%”; (runs of 2020) “inactive: 12.3, 17.7, 11.8, 10.5, 15.6, 20.8, 31.6 (2×), 24.2, 39.6, 33.2, 34.6, 10.4, 30.2, 11.1, 26.2, 34.1, 23.4, 44.5, 47.5, 17.3% and active: 5.15%, 9.16%”.
